Measured values from the antibiotic and cytotoxicity screens of Wong et al. (2023).
This is one part of the list.

test system: S. aureus RN4220; experiment: growth inhibition call (relative growth <= 0.2); details: 50 µM

Growth inhibition call, inactive:
C[C@@H]1CCCCO[C@@H](CN(C)CC2CCCCC2)[C@@H](C)CN([C@@H](C)CO)C(=O)c2cc(NS(=O)(=O)c3ccccc3)ccc2O1
C[C@H]1CCCCO[C@@H](CN(C)S(=O)(=O)c2cn(C)cn2)[C@@H](C)CN([C@@H](C)CO)C(=O)c2cc(NS(=O)(=O)c3cccs3)ccc2O1
CC/1=C(CCC(=O)O)/C/2=C/c3[nH]c(c(c3CCC(=O)O)C)/C=C/3\N=C(/C=C/4\N=C(\C=C1/N2)C(=C4C)C=C)C(=C3C)C=C
COc1ccccc1OCC(O)COC(N)=O (configuration not stated)
O=C(O)c1oc2ccccc2c1CSc1ccc(Cl)cc1
C[C@@H]1CCCCO[C@H](CN(C)C(=O)Nc2cccc3ccccc23)[C@H](C)CN([C@@H](C)CO)C(=O)c2cc(NS(=O)(=O)c3cn(C)cn3)ccc2O1
C[C@H](CO)N1C[C@H](C)[C@H](CN(C)Cc2ccc(Cl)c(Cl)c2)OCCCC[C@H](C)Oc2ccc(NC(=O)Nc3ccccc3)cc2C1=O
C[C@@H]1CCCCO[C@H](CN(C)C(=O)NC2CCCCC2)[C@@H](C)CN([C@H](C)CO)C(=O)c2cc(NC(=O)Nc3ccc4c(c3)OCO4)ccc2O1
CC(C)NC(=O)N(C)C[C@H]1Oc2ccc(NC(=O)CCCN(C)C)cc2C(=O)N([C@H](C)CO)C[C@H]1C
Cc1noc(C)c1NC(=O)N(C)C[C@H]1Oc2ccc(NC(=O)CCN3CCOCC3)cc2CC(=O)N([C@H](C)CO)C[C@@H]1C
COc1ccc(NC(=O)Nc2ccc3c(c2)[C@@H]2C[C@@H](CC(=O)NCc4ccncc4)O[C@@H](CO)[C@@H]2O3)cc1
CNC(=O)[C@H]1O[C@H](n2cnc3c(NCc4cccc(I)c4)ncnc32)[C@@H](O)[C@@H]1O
